Experimental data as given in patent US12084426B2, “Indazole carboxamides as kinase inhibitors” (BRISTOL-MYERS SQUIBB COMPANY, priority 2018, dated 2024).

Biological target: His-GST-TVMV-hRIPK1(1-324) (Homo sapiens (Human), UniProt Q13546)
Assay: biochemical
Conditions: not given

Structure (SMILES) | IC50
CNC(=O)c1n[nH]c2cc(N3CCCC(C(=O)NC4CCCC(c5ccccc5)C4)C3)ccc12 (single isomer, unassigned) [Example 16, N-methyl-6-{3-[(3-phenylcyclohexyl)carbamoyl]piperidin-1-yl}-1H-indazole-3-carboxamide] | 1600 nM
CNC(=O)c1n[nH]c2cc(N3CCCC(C(=O)NCC(O)COc4ccccc4)C3)ccc12 (single isomer, unassigned) [Example 6, 6-{3-[(2-hydroxy-3-phenoxypropyl)carbamoyl]piperidin-1-yl}-N-methyl-1H-indazole-3-carboxamide] | 52 nM
CNC(=O)c1n[nH]c2cc(N3CCCC(C(=O)NC4CCCC(c5ccccc5)C4)C3)ccc12 (single isomer, unassigned) [Example 15, N-methyl-6-{3-[(3-phenylcyclohexyl)carbamoyl]piperidin-1-yl}-1H-indazole-3-carboxamide] | 440 nM
CNC(=O)c1n[nH]c2cc(N3CCCC(C(=O)NCCCOC4CCCCC4)C3)ccc12 (racemic) [Example 9, 6-(3-{[3-(cyclohexyloxy)propyl]carbamoyl}piperidin-1-yl)-N-methyl-1H-indazole-3-carboxamide] | 1000 nM
CNC(=O)c1n[nH]c2cc(N3CCCC(C(=O)NCC(O)COc4ccccc4)C3)ccc12 (single isomer, unassigned) [Example 7, 6-{3-[(2-hydroxy-3-phenoxypropyl)carbamoyl]piperidin-1-yl}-N-methyl-1H-indazole-3-carboxamide] | 170 nM

Same assay, conditions: read-out: RIPK1 HTRF (IC50); HTRF binding, probe displacement, 1 h at rt

Structure (SMILES) | IC50
CNC(=O)c1n[nH]c2cc(N3CCOC(C(=O)NCCC(O)c4ccc(Cl)cc4)C3)ccc12 (centres unmarked) [Example 25, 6-(2-{[3-(4-chlorophenyl)-3-hydroxypropyl]carbamoyl}morpholin-4-yl)-N-methyl-1H-indazole-3-carboxamide] | 1600 nM
CNC(=O)c1n[nH]c2cc(N3CCN(C)C(C(=O)NCCC(C)c4ccccc4)C3)ccc12 (centres unmarked) [Example 20, N-methyl-6-{4-methyl-3-[(3-phenylbutyl)carbamoyl]piperazin-1-yl}-1H-indazole-3-carboxamide] | 2200 nM
CNC(=O)c1n[nH]c2cc(N3CCCC(C(=O)NCc4ccccc4OCC4CC4)C3)ccc12 (racemic) [Example 12, 6-[3-({[2-(cyclopropylmethoxy)phenyl]methyl}carbamoyl)piperidin-1-yl]-N-methyl-1H-indazole-3-carboxamide] | 110 nM
CNC(=O)c1n[nH]c2cc(N3CCOC(C(=O)NCC4CC4c4cccc(F)c4)C3)ccc12 (centres unmarked) [Example 23] | 280 nM
CNC(=O)c1n[nH]c2cc(N3CCCC(C(=O)NCCC(O)c4ccc(F)c(F)c4)C3)ccc12 (centres unmarked) [Example 14, 6-(3-{[3-(3,4-difluorophenyl)-3-hydroxypropyl]carbamoyl}piperidin-1-yl)-N-methyl-1H-indazole-3-carboxamide] | 310 nM
CNC(=O)c1n[nH]c2cc(C3CCCN(C(=O)NCCC(C)c4ccccc4)C3)ccc12 (centres unmarked) [Example 5, N-methyl-6-{1-[(3-phenylbutyl)carbamoyl]piperidin-3-yl}-1H-indazole-3-carboxamide] | 25 nM
CNC(=O)c1n[nH]c2cc(N3CCCC(C(=O)Nc4cnn(Cc5ccccc5)c4)C3)ccc12 (centres unmarked) [Example 11, 6-{3-[(1-benzyl-1H-pyrazol-4-yl)carbamoyl]piperidin-1-yl}-N-methyl-1H-indazole-3-carboxamide] | 540 nM
CNC(=O)c1n[nH]c2cc(N3CCN(C)C(C(=O)NCc4ccccc4OC)C3)ccc12 (centres unmarked) [Example 2, 6-(3-{[(2-methoxyphenyl)methyl]carbamoyl}-4-methylpiperazin-1-yl)-N-methyl-1H-indazole-3-carboxamide] | > 15000 nM
CNC(=O)c1n[nH]c2cc(N3CCNC(C(=O)NCCC(C)c4ccccc4)C3)ccc12 (centres unmarked) [Example 4, N-methyl-6-{3-[(3-phenylbutyl)carbamoyl]piperazin-1-yl}-1H-indazole-3-carboxamide] | 1100 nM
CNC(=O)c1n[nH]c2cc(N3CCOC(C(=O)NCCC(C)c4ccccc4)C3)ccc12 (centres unmarked) [Example 22, N-methyl-6-{2-[(3-phenylbutyl)carbamoyl]morpholin-4-yl}-1H-indazole-3-carboxamide] | 100 nM
CNC(=O)c1n[nH]c2cc(N3CCOC(C(=O)NC4CCCC(c5ccccc5)C4)C3)ccc12 (centres unmarked) [Example 26, N-methyl-6-{2-[(3-phenylcyclohexyl)carbamoyl]morpholin-4-yl}-1H-indazole-3-carboxamide] | 290 nM
CNC(=O)c1n[nH]c2cc(N3CCCC(C(=O)NCc4ccccc4Oc4ccccc4)C3)ccc12 (racemic) [Example 8, N-methyl-6-(3-{ [(2-phenoxyphenyl)methyl]carbamoyl}piperidin-1-yl)-1H-indazole-3-carboxamide] | 515 nM
CNC(=O)c1n[nH]c2cc(N3CCCC(C(=O)NCCC(O)c4ccccc4)C3)ccc12 (centres unmarked) [Example 10, 6-{3-[(3-hydroxy-3-phenylpropyl)carbamoyl]piperidin-1-yl}-N-methyl-1H-indazole-3-carboxamide] | 410 nM
CNC(=O)c1n[nH]c2cc(N3CCOC(C(=O)NCCC(O)c4ccc(F)c(F)c4)C3)ccc12 (centres unmarked) [Example 3, 6-(2-{[3-(3,4-difluorophenyl)-3-hydroxypropyl]carbamoyl}morpholin-4-yl)-N-methyl-1H-indazole-3-carboxamide] | 1100 nM
CNC(=O)c1n[nH]c2cc(N3CCN(C)C(C(=O)NCCC(C)c4ccc(F)cc4)C3)ccc12 (centres unmarked) [Example 19, 6-(3-{[3-(4-fluorophenyl)butyl]carbamoyl}-4-methylpiperazin-1-yl)-N-methyl-1H-indazole-3-carboxamide] | 790 nM
CNC(=O)c1n[nH]c2cc(N3CCCC(C(=O)NCCCOc4ccc(F)cc4)C3)ccc12 (centres unmarked) [Example 13, 6-(3-{[3-(4-fluorophenoxy)propyl]carbamoyl}piperidin-1-yl)-N-methyl-1H-indazole-3-carboxamide] | 1300 nM
CNC(=O)c1n[nH]c2cc(N3CCN(C)C(C(=O)NCCC(O)c4ccccc4)C3)ccc12 (centres unmarked) [Example 18, 6 6-{3-[(3-hydroxy-3-phenylpropyl)carbamoyl]-4-methylpiperazin-1-yl}-N-methyl-1H-indazole-3-carboxamide] | > 15000 nM
CNC(=O)c1n[nH]c2cc(N3CCOC(C(=O)NCCC(C)c4ccc(F)cc4)C3)ccc12 (centres unmarked) [Example 24, 6-(2-{[3-(4-fluorophenyl)butyl]carbamoyl}morpholin-4-yl)-N-methyl-1H-indazole-3-carboxamide] | 51 nM
